The full ranking holds about 13,000 compounds; the median of “IFI” is about 4, and the highest 2% start at about 17. Some of the results follow.
Assay: GSK_TCMDC: Inhibition Frequency Index (IFI). The number of non-kinase HTS assays where a compound showed > 50 % inhibition, expressed as a percentage of the number of such assays in which the compound was tested (-0 is zero)
Assay type: functional

Point of comparison: `O=C(/C=C/c1ccc(Cl)c(Cl)c1)NCCCCCN1CCCN(C(=O)Nc2ccc([N+](=O)[O-])cc2)CC1`, IFI 4.73%. Against it:
- Fc1ccc2[nH]c(-c3ccc(-c4ccc(CN5CCC(CCN6CCCCC6)CC5)cc4)cc3)nc2c1 — higher, 8.22%
- O=C(Nc1cccc(Cl)c1Cl)N1CCc2cc3nccc(N4CCN5CCC[C@H]5C4)c3cc21 — higher, 4.93%
- Nc1ccc(-c2nc3cc(-c4ccc5[nH]c(-c6ccc(N)cc6)nc5c4)ccc3[nH]2)cc1 — higher, 7.25%
- O=c1cc(NCCCNC2CCc3ccc(Cl)cc32)[nH]c2ccccc12 (centres undefined) — higher, 5.15%
- COc1ccc2nccc([C@@H](O)CN3CCC(NCC4COc5ccccc5O4)CC3)c2c1 (some centres undefined) — lower, -0%
- COc1ccccc1N1CCN(Cc2cc(C(C)C)c(C)cc2O)CC1 — lower, 1.72%
- Cn1c(N)cc(-c2ccc(Br)cc2)c2c(=O)nc(N)nc1-2 — lower, 1.54%
- Cc1c(O)cccc1Nc1ccnc2ccc(C(F)(F)F)cc12 — lower, 2.29%
- COc1ccc(Cn2c(Nc3cccc(C(F)(F)F)c3)nc3cc(C(=O)NC(C)C)cnc32)cc1Cl — lower, 3.73%
- Cn1ccc(C(=O)Nc2ccc3c(c2)CN(Cc2ccc(N4CCCC4)o2)CCC3)n1 — lower, 0%
- Oc1ccc(CCNc2nc(NCCCOc3cc(CN4CCCCC4)ccc3F)nc(N3CCNCC3)n2)cc1 — higher, 7.69%
- COc1ccc(F)cc1-c1ccccc1CNC(=O)c1cnn(-c2ccc([N+](=O)[O-])cc2)c1C(F)(F)F — lower, -0%
- CC(C(=O)N1CCCC1)N1CCN(S(=O)(=O)c2ccc(C(C)(C)C)cc2)CC1 (centres undefined) — lower, 2.04%
- O=C(O[C@@H]1CN[C@H](C#Cc2cc3c(Nc4ccc5c(cnn5Cc5ccccc5)c4)ncnc3s2)C1)N1CCCC1 — lower, 1.46%
- CCCCOC(=O)[C@H](CCC)NC(=O)c1ccc(NS(=O)(=O)c2ccc3nc(N)[nH]c(=O)c3c2)cc1 — lower, 2.14%
- CC1CCCN1Cc1cccc(-c2ccc(C(=O)NCCOc3ccccc3)s2)c1 (centres undefined) — higher, 5.32%
- Cc1nnsc1C(=O)Nc1cccc(-c2ccc(-c3nc4ccccc4[nH]3)s2)c1 — higher, 5.45%
- O=C(NCCCCCN1CCCN(C(=O)Nc2ccc(F)c(C(F)(F)F)c2)CC1)C1CC1c1ccc(Cl)c(Cl)c1 (centres undefined) — higher, 16.7%
- O=C(Nc1cccc(CN2CCCN(Cc3ccc4c(c3)OCO4)CC2)c1)c1cc2ccccc2s1 — higher, 9.92%
- O=C1COC(c2ccccc2)(c2ccccc2)CN1CC1CCN(Cc2ccc(O)cc2Cl)C1 (centres undefined) — higher, 7.32%
- CCOc1ccc(CCC(=O)O)cc1OCC — lower, 1.45%
- O=C(Nc1ccc2c(c1)CCC2)c1ccc(N2CCN(c3ccncc3)CC2)cc1 — lower, 2.86%
- O=C(Nc1cccc(-c2ccc(-c3nc4cc(C(F)(F)F)ccc4[nH]3)s2)c1)c1cccnc1 — lower, 4.59%
- O=C(NCCc1cccc(Cl)c1Cl)c1ccc(N2CCN(c3ccncc3)CC2)nc1 — higher, 10.4%
- O=C(C=Cc1ccc(Cl)c(Cl)c1)NCCCCCN1CCC(CCNC(=O)C(c2ccccc2)c2ccccc2)CC1 — higher, 9.56%
- CCCCCCC(C)c1cc(O)c2c(c1)OC(=O)CC2(CC)c1ccccn1 (centres undefined) — lower, 0.73%
- CC(C)N1CCN(CCCCNc2c3ccccc3nc3ccccc23)CC1 — lower, 2.99%
- CC1(C)NC(N)=NC(=N)N1OCCc1cccc2ccccc12 — higher, 5%
- N=C(N)NN=CC(=O)Nc1ccc(Cl)c(Cl)c1 — lower, 0.74%
- Cc1ccc(NC(=O)N2CCCN(CCCCCNC(=O)/C=C/c3ccc(Cl)c(Cl)c3)CC2)cc1 — lower, 2.68%
- COc1ccc(Oc2ccc(Nc3ccnc4ccc(C(F)(F)F)cc34)cc2)cc1OC — higher, 5.11%
- CCCC(C)N(Cc1ccc(C(C)(C)C)cc1)C(=O)c1cccc(C#N)c1 (centres undefined) — lower, 2.21%
- CC(C)c1ccc(NC(=O)c2cccc(CN3CCCN(Cc4cccc(O)c4)CC3)c2)cc1 — lower, 3.6%
- CCN1CCN(c2cc(C)c3cc(NC(=O)C=Cc4cccc(OC)c4OC)ccc3n2)CC1 — higher, 6.8%
- COc1ccc(CN(C)Cc2cc(C(C)C)c(C)cc2O)cc1F — higher, 5.88%
- O=C(NCc1ccc(F)cc1)Nc1ccc(-c2cccc(-c3nc4cc(F)ccc4[nH]3)c2)cc1 — higher, 8.62%
- Cc1ccc(NC(=O)NC2CCN(CCC(NC(=O)Cc3ccccc3)c3ccc(Cl)c(Cl)c3)CC2)cc1 (centres undefined) — lower, 2.8%
- CC(C)(C(=O)Nc1ccc(C2CCC(NCC3CC3)CC2)c(Cl)c1)c1ccc(C(F)(F)F)cc1 (centres undefined) — higher, 25%
- CCCCN(CCCC)/C(=N/C(=N)Nc1ccc(Cl)cc1)NCCCCCCN/C(=N\C(=N)Nc1ccc(Cl)cc1)N(CCCC)CCCC — higher, 13.6%
- CS(=O)(=O)c1cccc2sc(N3CCN(C(=O)c4ccc([N+](=O)[O-])o4)CC3)nc12 — lower, 4%
- CN(C)C(=O)C(CC(=O)NCc1ccccc1Cl)N(C)C.CN(C)C(=O)CC(C(=O)NCc1ccccc1Cl)N(C)C (centres undefined) — lower, -0%
- O=c1ccc(CNc2nc(NCCc3ccccc3)nc3cc(Cl)ccc23)c[nH]1 — lower, 0.94%
- COc1cc2ccccc2c(OC)c1CNCCCCCCNCc1c(OC)cc2ccccc2c1OC — higher, 12.9%
- CCc1nn2c(Nc3ccncc3)cc(C)nc2c1-c1ccccc1 — higher, 5.66%
- O=C(c1ccc([N+](=O)[O-])o1)N1CCC(c2cn(Cc3cccc(F)c3)c3ccccc23)CC1 — higher, 5%
- CS(=O)(=O)CCNCc1ccc(-c2cc3c(Nc4ccc(OCc5cccc(F)c5)c(Cl)c4)ncnc3s2)[nH]1 — lower, 4.29%
- CCCCC#Cc1cnc2nc(N)[nH]c(=O)c2n1 — lower, -0%
- CCOC(=O)C1CCN(CCOc2cc(NC(=O)/C=C/c3ccccc3Cl)ccc2Br)CC1 — lower, 2.96%
- Cc1c(-c2cccc(CNCCc3ccc(Cl)cc3)c2)cnc(N)c1C — higher, 5.43%
- Cc1nn(-c2cccc(Cl)c2)c2c1C(C(=O)c1ccc3c(c1)OCO3)CC(=O)N2 (centres undefined) — lower, -0%
- Cc1cc(-c2ccc(O)c(CNC3CCCCC3)c2)cnc1N — lower, 3.33%
- CCCCc1cc(Cc2cnc(N)nc2N)cc(OC)c1OC — lower, 2.67%
- Cc1ccc(Nc2nc(C)cc(NCc3ccc(-n4ccnc4)cc3)n2)cc1 — higher, 10.6%
- COc1ccc(-c2csc(N(CCCN(C)C)C(=O)c3cc4c(C)nn(-c5ccccc5)c4s3)n2)cc1 — higher, 8.39%
- CCc1c[nH]c2c(N3CCCS3(=O)=O)cc(C(=O)N[C@@H](Cc3ccccc3)[C@H](O)CNC3CCCCC3)cc12 — lower, 2.08%
- COc1ccc(CNC2CCN(C)CC2)cc1-c1ccc(S(=O)(=O)NCCc2ccccn2)s1 — lower, 1.89%
- Fc1ccc2[nH]c(-c3ccc(-c4ccc(CN5CCN(CCN6CCOCC6)CC5)cc4)s3)nc2c1 — higher, 7.04%
- NCC(=O)NC12CC3CC(CC(C3)C1)C2 — lower, -0%
- c1cc2[nH]c(CCCCc3nc4cc(C5=N[C@H]6CCCC[C@H]6N5)ccc4[nH]3)nc2cc1C1=N[C@H]2CCCC[C@H]2N1 — lower, 1.36%
- COc1cc(F)c2ncc(Cl)c([C@@H](O)CN3CCC(NCc4cc5c(cn4)OCCO5)CC3)c2c1 — lower, 0%
- O=[N+]([O-])c1ccc2nc(Nc3cccc(C(F)(F)F)c3)c(Nc3cccc(C(F)(F)F)c3)nc2c1 — higher, 5.88%
- CCNc1cc(C(=O)N[C@@H](Cc2ccccc2)[C@H](O)CNC(C)Cc2cccc(Cl)c2)cc(N2CCCCS2(=O)=O)c1 (some centres undefined) — higher, 4.9%
- Cn1cnc(CCNC(=O)c2ccc(-c3cccc(-c4nc5cc(F)ccc5[nH]4)c3)cc2)c1 — lower, 3.81%
- Cc1nc(C)c(-c2ccc(C(=O)c3ccc(Cl)cc3)cc2)c(O)c1Cl — lower, 2.21%
- SC(=Nc1ccc2c(c1)OCCO2)NN=Cc1ccccn1 — higher, 5%
- CN1CCN(Cc2c(O)ccc3c(=O)c(Oc4ccc(C(C)(C)C)cc4)c(C(F)(F)F)oc23)CC1 — lower, 2.42%
- NC1=NC(c2ccccc2)(c2ccccc2)C(=O)N1Cc1ccc(-c2cccnc2)cc1 — higher, 6.48%
- C=CC(C)C1OC(=O)c2cc(OC)cc(OC)c21 (centres undefined) — higher, 27%
- Cc1ccc2nc3c(cc(C(=O)NCc4ccccc4)c(=N)n3CCCn3ccnc3)c(=O)n2c1 — lower, 0.88%
- O=C(Nc1ccc(Oc2ccccc2)cc1)N(Cc1ccc(-c2ccc(CN3CCNCC3)cc2)cc1)C1CCN(Cc2ccccc2)CC1 — higher, 6.34%
- CN(C)CCN1CCN(Cc2ccc(-c3cccc(-c4nc5ccccc5[nH]4)c3)cc2)CC1 — higher, 9.33%
- O=C(Nc1ccc(-c2nc3ccccc3[nH]2)cc1)c1ccc(S(=O)(=O)N2CCCCCC2)cc1 — lower, 1.46%
- Cc1cc(N(CCCN(C)C)Cc2cc(F)cc(F)c2)nc(Nc2ccc(Cl)cc2)n1 — higher, 10.6%
- CC(=O)Nc1[nH]c(-c2ccccc2)nc1C(N)=O — lower, 0%
- CO/C(=C\C=C\c1cc2cc(Cl)c(Cl)cc2[nH]1)C(=O)NCCCNC12CC3CC(CC(C3)C1)C2 — higher, 21.1%
- O=C(C=Cc1ccc(Cl)c(Cl)c1)NCCCCCN1CCC(CCCNS(=O)(=O)c2ccc(Br)cc2)CC1 — higher, 12.9%
- Cc1ccc(-c2nn3c(O)c4c(nc3c2C)CCCC4)cc1 — lower, 0.88%
- Cc1cccc(N2CCN(C3CCC(NC(=O)c4cc5ccccc5[nH]4)CC3)CC2)c1C (centres undefined) — higher, 22.9%
- Cc1cc(N2CCCC2)nc(Nc2ccc(NC(=O)c3ccccc3)cc2)n1 — higher, 13.5%
- O=C(Nc1cccc(CN2CCCN(Cc3cccnc3)CC2)c1)c1ccc(Cl)c(Cl)c1 — lower, 2.03%
- CC(C)c1ccc(S(=O)(=O)Nc2cccc(CCN3CCC(N4CCCCC4)CC3)c2)cc1 — higher, 9.52%
- O=C(Nc1cccc(C(F)(F)F)c1)c1ccc(S(=O)(=O)NCC2CCCN(CC3CCCCC3)C2)cc1 (centres undefined) — higher, 5.1%
- COc1cccc(C=CC(=O)N(CCN)Cc2ccccc2)c1 — lower, 0%
- CC(=O)Nc1nc(C(=O)Nc2ccc(-c3cccc(-c4nc5cc(C(F)(F)F)ccc5[nH]4)c3)cc2)cs1 — higher, 6.03%
- O=C(Nc1ccc2c(c1)OCO2)c1cc(-c2cccnc2)nc2ccc(Cl)cc12 — lower, 0%
- CCN(CCNC(=O)C1CCN(c2cc(-c3cccc(C)c3)ncn2)CC1)Cc1ccccc1 — lower, 0%
- Cc1[nH]c(C)c(-c2ccc(Oc3ccc(O)cc3)cc2)c(=O)c1Cl — lower, 0.92%
- O=C(Nc1ccc(S(=O)(=O)NCCCN2CCOCC2)cc1)c1cc(-c2ccccc2)[nH]n1 — lower, 1.96%
